The structures appear in SMILES notation. About 2,200 (0.71%) of roughly 310,000 compounds showed an effect of 50% or more. Effects have a minus sign here. Some of the results follow.

Chain of human ether-à-go-go-related gene (hERG) potassium channel (Q12809 whole entry, looked up): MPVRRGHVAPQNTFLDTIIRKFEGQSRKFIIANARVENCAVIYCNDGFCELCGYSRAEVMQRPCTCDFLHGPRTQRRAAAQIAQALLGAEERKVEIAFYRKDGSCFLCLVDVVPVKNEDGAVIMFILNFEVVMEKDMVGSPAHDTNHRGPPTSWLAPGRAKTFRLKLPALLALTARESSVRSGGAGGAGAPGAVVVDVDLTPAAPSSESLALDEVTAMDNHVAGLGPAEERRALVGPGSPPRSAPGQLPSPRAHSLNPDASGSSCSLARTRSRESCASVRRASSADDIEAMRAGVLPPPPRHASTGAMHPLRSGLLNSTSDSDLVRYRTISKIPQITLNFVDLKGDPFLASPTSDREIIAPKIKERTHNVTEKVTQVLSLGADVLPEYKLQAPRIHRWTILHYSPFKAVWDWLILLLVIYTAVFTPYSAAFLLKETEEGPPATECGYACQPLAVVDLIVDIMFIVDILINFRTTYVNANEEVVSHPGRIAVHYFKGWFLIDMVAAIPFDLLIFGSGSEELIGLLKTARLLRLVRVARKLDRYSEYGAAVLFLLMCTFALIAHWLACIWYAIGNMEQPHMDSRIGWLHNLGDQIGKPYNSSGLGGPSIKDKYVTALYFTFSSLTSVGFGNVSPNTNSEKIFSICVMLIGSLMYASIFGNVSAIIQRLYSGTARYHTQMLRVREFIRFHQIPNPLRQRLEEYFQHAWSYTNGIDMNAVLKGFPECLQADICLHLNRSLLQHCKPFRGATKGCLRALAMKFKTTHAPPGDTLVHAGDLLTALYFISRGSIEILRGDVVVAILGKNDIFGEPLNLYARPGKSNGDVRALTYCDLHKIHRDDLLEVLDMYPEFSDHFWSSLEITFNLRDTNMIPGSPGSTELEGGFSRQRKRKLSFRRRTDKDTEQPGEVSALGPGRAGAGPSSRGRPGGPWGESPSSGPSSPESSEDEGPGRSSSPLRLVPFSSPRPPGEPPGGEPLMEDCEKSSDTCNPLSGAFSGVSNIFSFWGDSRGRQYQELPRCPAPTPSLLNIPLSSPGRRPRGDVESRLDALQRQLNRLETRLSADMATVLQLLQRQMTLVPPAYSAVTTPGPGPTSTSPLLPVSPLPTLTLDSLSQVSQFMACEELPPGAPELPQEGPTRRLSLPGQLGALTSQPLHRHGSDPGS

This experiment has as its target human ether-à-go-go-related gene (hERG) potassium channel (human, UniProt Q12809). In words: primary screen, population patch clamp on CHO cells stably expressing hERG.
As to `CCOC(=O)c1ccc(-n2cncn2)nc1`, the “hERG current change (%, negative = inhibition) at 1uM” value is 1.14%.
The result for `CC(=O)Oc1c(C)cc(Cl)cc1C(=O)Nc1ccc([N+](=O)[O-])cc1Cl` reads 17.9%; that for `CCc1ccc(-c2csc(NC(=O)C3CCCO3)c2C(=O)OC(C)C)cc1` (centres unmarked), 12.1%.
Next, `C/C(=C\c1ccccc1)C(=O)NCc1ccco1`: 21%; `CCOC(=O)CC1(c2ccc(OC)c(OC)c2)C(=O)c2ccccc2C1=O`: 10.7%.
For `CCOC(=O)Cn1c2c(c(=N)c3c1CCC3)CCC2.Cl`, the “hERG current change (%, negative = inhibition) at 1uM” value is reported as 10.2%.
Next, `CC1CCCCN1C(=O)CSc1nc(N)nc(N)n1` (centres unmarked): 19.9%.
Next, `O=C(COc1cccc(Oc2ccccc2)c1)Nc1ncccn1`: 15.3%.
Next, `CSc1nnc(NC(=O)c2cc(=O)c3cc(C)cc(C)c3o2)s1`: 18.5%; `CS(=O)(=O)c1ccc(NC(=O)c2ccc3c(c2)S(=O)(=O)N=C2CCCCCN23)cc1`: 5.48%.
With `Nn1cnc2scc(-c3ccco3)c2c1=O`, the “hERG current change (%, negative = inhibition) at 1uM” value was determined as 14.7%.
As for `CCN1CCN(Cc2ccc(NC(=O)c3cc(NC(=O)N4CCNC4=O)cc(OC)c3)cc2C(F)(F)F)CC1`, the “hERG current change (%, negative = inhibition) at 1uM” value is on record as 12%.
In the case of `Nc1ccc(-n2nc3ccccc3n2)cc1`, the “hERG current change (%, negative = inhibition) at 1uM” value turned out to be 8.64%.
Regarding `CC(=O)N1CC2([N+](=O)[O-])CN(C(C)=O)CC([N+](=O)[O-])(C1)C2(C)C`, the “hERG current change (%, negative = inhibition) at 1uM” value was 5.81%.
Next, `Cc1cc(Nc2ccc(F)cc2C)n2nc(C)nc2n1`: 1.33%; `CCOC(=O)N1CCC(NC(=O)CSc2cc(=O)n(C)c3ccccc23)CC1`: -0.47%.
Turning to `CC1CCCCN1S(=O)(=O)c1ccc(S(=O)(=O)N(Cc2ccccc2)Cc2ccco2)cc1` (centres unmarked), the “hERG current change (%, negative = inhibition) at 1uM” value was 7.02%.
On to `CC1Cc2cccc3c(O)c(C(=O)c4nn[nH]n4)c(=O)n1c23` (centres unmarked), for which the “hERG current change (%, negative = inhibition) at 1uM” value was 13.5%.
Next, `Cc1ccc(S(=O)(=O)NCC(=O)N(CC(=O)NCc2ccco2)Cc2ccc3c(c2)OCO3)cc1`: -5.71%.
The result for `c1ccc2c(CN3CCCCCCC3)c[nH]c2c1` reads 0.417%.
Next, `O=S(=O)(c1ccc(NC(=S)NCCC(c2ccccc2)c2ccccc2)cc1)N1CCOCC1`: 8.57%; `Cc1nnc(SCC(=O)Nc2sc3c(c2C(N)=O)CCCC3)[nH]c1=O`: 10.4%.
With `N#Cc1cc(-c2ccccc2)nnc1Sc1ccc(Cl)cc1`, the “hERG current change (%, negative = inhibition) at 1uM” value is recorded as -3.49%.
As to `CC(=O)Nc1ccc([N+](=O)[O-])cn1`, the “hERG current change (%, negative = inhibition) at 1uM” value is reported as 18.6%.
The result for `COCCCN1C(=O)C(O)=C(C(C)=O)C1c1ccccn1.Cl` (centres unmarked) reads 8.91%.
With `O=C1/C(=C/c2cccs2)NC(=S)N1C1CC1`, the “hERG current change (%, negative = inhibition) at 1uM” value is -1.49%.
Next, `CCc1ccccc1OCc1nc2ccc(S(=O)(=O)N3CCOCC3)cc2[nH]1`: -15%; `CC(=O)/C(=C\Nc1ccc(OCc2ccccc2)cc1)c1ccccc1`: 6.32%; `COc1ccccc1OCCNC(=O)c1ccc(Br)cc1`: 10.6%.
In the case of `CC1=CC(C)[C@H](/C=N/n2c(=O)[nH]c3c([nH]c4ccc(C)cc43)c2=O)C(C)C1` (some centres unmarked), the “hERG current change (%, negative = inhibition) at 1uM” value was -5.91%.
The result for `Cc1cccc(C(=O)NCc2nnc(SCC(=O)N3CCN(c4ccccc4)CC3)n2C)c1` reads 11.9%.
The result for `CCN(c1ccc(OC)cc1)S(=O)(=O)c1nnc(NC(=O)COc2ccc(C)cc2)s1` reads 12.4%.
Next, `CCOc1ccc2[nH]c(C)c(CN3CCOCC3)c(=O)c2c1`: 11.9%; `CCOC(=O)C1CCCN(C(=O)C2CCN(c3nnc(-n4cccc4)s3)CC2)C1` (centres unmarked): -8.73%; `COc1ccc(/C=N/NC(=O)c2nc(-c3ccccc3)n(-c3ccccc3)n2)c(O)c1`: 8.28%.
With `COc1cc(OC)c(C(=O)NCCCN2CCOCC2)cc1OC`, the “hERG current change (%, negative = inhibition) at 1uM” value turned out to be 11%.
Next, `CCN(CC)CCN1C(=O)C(=O)/C(=C(/O)c2c(C)[nH]c(C(=O)OC)c2C)C1c1cccs1` (centres unmarked): 4.27%.
`COc1ccc(NC(=O)C2CCCN(c3cnccn3)C2)c(OC)c1` (centres unmarked): the “hERG current change (%, negative = inhibition) at 1uM” value turned out to be 28.3%.
The result for `CCn1c(SCC(=O)Nc2ccc(N(C)C)cc2)nnc1C1CC1` reads 12.9%; that for `O=C(CCCOc1ccccc1)Nc1ccc(Br)cc1`, 11.3%.
Next, `Br.Cn1c(CS/C(N)=N/N=C/c2ccccc2)c(Br)c(=O)n1-c1ccccc1`: 5.39%.
`Cc1ccc2nc(NC(=O)C3CCN(c4ncnc5sc(C)c(C)c45)CC3)sc2c1`: the “hERG current change (%, negative = inhibition) at 1uM” value amounted to 6.69%.
`COc1ccc(N(C(=O)C2CCCCC2)C2C=CS(=O)(=O)C2)c(OC)c1` (centres unmarked): the “hERG current change (%, negative = inhibition) at 1uM” value was determined as 5.57%.
The result for `COc1ccc(C(C)(C)C)cc1NC(=O)c1ccc[n+]([O-])c1` reads 21.2%.
In the case of `CCc1cc(=O)oc2c(C)c(OCC(=O)NCc3ccccn3)ccc12`, the “hERG current change (%, negative = inhibition) at 1uM” value is recorded as 19.4%.
For `CCOC(=O)c1c(NC(=S)N2CCN(C)CC2)sc(C)c1-c1ccccc1`, the “hERG current change (%, negative = inhibition) at 1uM” value is -13.1%.
Next, `Cc1nnc(C)n1/N=C/c1ccc2c(c1)OCCO2`: 11.5%; `Cc1cc(C(C)(C)C)cc(S(=O)(=O)NCC(=O)O)c1C`: 7.74%; `CCN(CC)S(=O)(=O)c1ccc2oc(SCC(=O)Nc3cc(C)on3)nc2c1`: 3.32%.
Consider `COc1cc(/C=C(\C#N)C(=O)Nc2ccc3c(c2)OCCO3)ccc1O`, for which the “hERG current change (%, negative = inhibition) at 1uM” value was found to be 8.1%.
As for `O=C(COC(=O)CC12CC3CC(CC(C3)C1)C2)Nc1ncc(Cl)cc1Cl`, the “hERG current change (%, negative = inhibition) at 1uM” value is -7.39%.
Next, `O=C(/C=C/c1ccccc1[N+](=O)[O-])Oc1ccccc1`: 16.8%; `O=C(Nc1ccc2nc3n(c(=O)c2c1)CCCCC3)C(=O)N1CCN(c2ccccc2)CC1`: 6.91%; `Cc1ccc(Nc2nc(-c3sc(NC(=O)c4ccco4)nc3C)cs2)cc1`: 2.13%.
Take `Cc1ccc(Nc2c([N+](=O)[O-])c(=O)oc3ccccc23)cc1`: the “hERG current change (%, negative = inhibition) at 1uM” value is 8.9%.
The result for `O=C(COC(=O)c1ccccc1NC(=O)c1ccco1)Nc1ccc2c(c1)OCO2` reads 0.0019%.

The values above are taken from publication PMC4336329 (PLoS ONE, 2015).
